Usually inhibition stands for the change of the read-out against control, counted positive when it falls.

About 6,900 (2%) of roughly 340,000 compounds were called active. Cut-off read from the data, not from the text of the source: active = inhibition above about 30%; inactive = below that, where a call was filed. Only a part is listed here, and it is no random draw. The source gives no active or inactive call for entries shown without one.

For 61 compounds, inhibition results are on record in PubChem BioAssay AID485344 (National Center for Advancing Translational Sciences (NCATS), 2010).

The experiment concerns the target D(2) dopamine receptor (Homo sapiens) (UniProt P14416). Briefly: HTS Assay for Allosteric Antagonists of the Human D2 Dopamine Receptor: Primary Screen for Antagonists. Note: 0% is about no effect. Particulars: HEK293 TREx D2 cells, calcium flux, dopamine EC80; at 10 µM; stronger effect = higher value. The procedure, abridged: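 Compounds are added to dye-loaded, induced HEK293 T-REx cells coupled to calcium release via D2; after a 3 min kinetic read an EC80 dopamine stimulus is given and fluorescence is recorded for 3 more min.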
Chain of UniProt P14416 (P14416 whole entry, looked up): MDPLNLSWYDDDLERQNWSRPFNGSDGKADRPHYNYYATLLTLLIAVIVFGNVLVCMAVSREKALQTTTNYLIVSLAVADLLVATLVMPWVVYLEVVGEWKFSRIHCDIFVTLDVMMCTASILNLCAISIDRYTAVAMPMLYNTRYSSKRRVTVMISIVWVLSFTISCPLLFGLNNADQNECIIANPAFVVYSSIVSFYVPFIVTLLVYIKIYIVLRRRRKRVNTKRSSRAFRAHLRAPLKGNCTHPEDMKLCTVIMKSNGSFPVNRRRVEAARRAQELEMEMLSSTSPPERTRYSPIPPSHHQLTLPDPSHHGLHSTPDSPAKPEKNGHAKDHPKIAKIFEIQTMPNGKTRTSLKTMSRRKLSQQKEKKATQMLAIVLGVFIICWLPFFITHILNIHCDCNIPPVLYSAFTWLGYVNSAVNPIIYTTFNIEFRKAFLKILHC
Take `COc1ccc(CCNC(=O)c2ccc3c(c2)N(Cc2ccccc2F)C(=O)c2ccccc2S3=O)cc1OC` (stereo unspecified): the inhibition is -5.82%.
In the case of `CCOc1ccccc1CNC(=O)CCc1c(C)nn(-c2ccc(N3CCOCC3)nn2)c1C` it was -2.59%; in that of `O=C(CN1C(=O)COc2ccc(S(=O)(=O)N3CCCC3)cc21)N1CCN(c2cccc(C(F)(F)F)c2)CC1`, 12%; in that of `COCC(=O)N1CCN(c2cccc(C(F)(F)F)c2)CC1`, active: 43.9%.
In the case of `COc1ccc(N2CCN(S(=O)(=O)CCNC(=O)COc3ccccc3F)CC2)cc1`, the inhibition came to 17.9%.
In the case of `CCN(CC)S(=O)(=O)c1ccc(C(=O)NCCSc2c(-c3ccc(C)cc3)[nH]c3ccccc23)cc1` it was -7.77%; in that of `CCN1CCN(C(=O)Cn2c(-c3cccs3)cc3ccccc32)CC1`, 1.45%; in that of `COc1cccc(OCc2cc(=O)n3c(-c4ccccc4)csc3n2)c1`, 14.4%.
For `COc1nc(-c2ccccc2)ccc1-c1noc(-c2ccccc2Br)n1`, the inhibition is -2.97%.
`CCC(C)Nc1oc(-c2ccc(COc3ccc(Cl)cc3)o2)nc1C#N` (stereo unspecified): the inhibition is -5.39%.
The same measure for `O=C(Nc1ccc(OCc2cc(=O)n3ccccc3n2)cc1)c1ccccc1Cl`: 4.12%; for `COc1ccc(-n2nc(C(=O)N3CCN(c4ccc(F)cc4)CC3)c3ccccc3c2=O)c(OC)c1`: active: 34.4%; for `CCc1ccc(CN(Cc2ccco2)C(=O)COc2ccc(Cl)c(C)c2)cc1`: 15.2%.
In the case of `CCn1cc(C(=O)NCc2ccc(C)cc2)c(=O)c2cc(S(=O)(=O)N(C)C3CCCCC3)ccc21` it was -9.6%; in that of `CCC(C)NC(=O)CSc1nc2c(sc3ccccc32)c(=O)n1CCc1ccc(OC)c(OC)c1` (stereo unspecified), 15.7%.
For `CCN(CC)c1nc2c(S(=O)(=O)c3cccc(Cl)c3)nnn2c2ccsc12`, the inhibition amounted to 7.37%.
The same measure for `COc1ccc(S(=O)(=O)c2c(SC)nn(CC(=O)Nc3cccc(C)c3C)c2N)cc1`: 5.98%; for `Cc1ccc(-c2nc(CS(=O)(=O)CC(=O)NCCc3ccccc3)c(C)o2)cc1`: 16.2%.
The same measure for `Cc1ccc2c(c1)NC(=O)c1cccnc1O2`: 0.806%; for `COc1ccc(N2CCN(C(=O)CSc3nnnn3C3CC3)CC2)cc1`: active: 31.8%.
In the case of `COc1ccc(CNC(=O)Cn2nc(N3CCN(c4ccccc4)CC3)ccc2=O)c(OC)c1` it was 9.69%; in that of `CCCCn1c(NCc2cc(Br)ccc2O)nc2ccccc21`, 3.06%.
Take `COC(=O)c1c(-c2cccs2)csc1NC(=O)c1ccc(OC)c(OC)c1`: the inhibition was determined as 2.91%.
In the case of `CCNC(=O)C1CCN(c2nnc(C)c3c(C)n(-c4ccc(OC)cc4)nc23)CC1` it was -2.3%.
As to `Cc1cccc(NC(c2ccccc2C)c2ccc3ccc(C)nc3c2O)n1` (stereo unspecified), the inhibition was -21.6%.
Take `O=C(OCn1nnc2ccccc2c1=O)c1cc2ccccc2o1`: the inhibition was active: 68.6%.
The same measure for `CC(=O)c1ccc(OCC(O)CN(C)CCOc2ccc(Br)cc2)cc1` (stereo unspecified): active: 43.8%.
The same measure for `Cc1cc(C)n(-c2nc3cc(Cl)ccc3nc2Nc2ccc(CC(=O)O)cc2)n1`: 5.46%; for `COc1ccc2nc(NC(=O)c3nc(SCc4ccccc4F)ncc3Cl)sc2c1`: -10.8%.
In the case of `CCn1c(SCC(=O)c2ccccc2)nnc1-c1cccc(Cl)c1` it was 16.7%; in that of `Cc1ccc(/C=C/c2onc(C)c2S(=O)(=O)N2CCC(C(=O)NCc3ccc(OC(C)C)cc3)CC2)cc1`, -22%.
For `O=C(Cn1c(-c2cccs2)cc2cc(F)ccc21)NCCCN1CCN(c2ccc(F)cc2)CC1`, the inhibition is -7.76%.
The same measure for `COc1cccc(CNCCSc2nnnn2-c2ccccc2)c1OC`: 27.8%; for `COc1ccc(-c2c(C)c3ccc(O)c(CN4CCCC4)c3oc2=O)cc1`: -7.13%.
In the case of `Cc1ccc(CNC(=O)c2ccccc2NC(=O)c2nsc3ccccc23)cc1` it was 2.74%; in that of `CC(=O)N1CCC(N2CCN(c3ccccc3F)CC2)CC1`, active: 71.4%.
For `Cc1cccc(C)c1NC(=O)CN1C(=O)C2CC=CCC2C1=O` (stereo unspecified), the inhibition is active: 56.9%.
As for `COc1ccc(OCC(=O)NCC(c2ccc(OC)cc2)N2CCOCC2)cc1` (stereo unspecified), the inhibition is -11.8%.
The same measure for `Cc1ccc(C)c(N2CCN(C(=O)CS(=O)(=O)c3cccc4nsnc34)CC2)c1`: 22%.
In the case of `Cc1cc(NC(=O)C(C)(C)C)cc(-c2nc3ncccc3o2)c1O`, the inhibition is -10.5%.
For `CC(=O)/C(C[N+]1(C)CCCCC1)=N\O`, the inhibition was active: 44.1%.
In the case of `Cc1cccc(N2CCN(C(=O)CN3C(=O)COc4ccc(S(=O)(=O)N5CCCC5)cc43)CC2C)c1` (stereo unspecified) it was 17.1%; in that of `Cc1cccc2sc(N(Cc3cccnc3)C(=O)C3COc4ccccc4O3)nc12` (stereo unspecified), 7.76%.
With `Cc1ccc(CNC(=O)CN2C(=O)C3(SCC(=O)N3c3ccc(F)c(F)c3)c3ccccc32)cc1` (stereo unspecified), the inhibition is -1.76%.
For the compound `COc1ccc(-c2nc(Cn3c(SCc4ccccc4F)nc4cccnc43)c(C)o2)cc1`, the inhibition is -16.9%.
On to `COc1cc(C(=O)NCC(=O)N/N=C/c2ccc(-c3cccc([N+](=O)[O-])c3)o2)cc(OC)c1OC`, for which the inhibition was active: 50.1%.
Turning to `COC(=O)c1c(NC(=O)c2ccc(S(=O)(=O)N(C)C3CCCCC3)cc2)sc2c1CCN(C)C2`, the inhibition was 10.4%.
In the case of `COC(=O)c1ccccc1NC(=O)C1CCCN(c2nnc(C)c3c(C)n(-c4ccccc4)nc23)C1` (stereo unspecified) it was -19.9%.
Take `CCOC(=O)C(Cc1ccccc1)NC(=O)CCc1c(C)nc2c(c(C)nn2-c2ccc(C)c(C)c2)c1C` (stereo unspecified): the inhibition is -12.4%.
In the case of `O=C(CN1C(=O)CCc2cc(S(=O)(=O)N3CCCCC3)ccc21)NCc1ccc(Cl)cc1` it was 5.98%; in that of `CCc1ccc(NC(=O)CSc2ncc(S(=O)(=O)c3cc(C)ccc3C)c(=O)[nH]2)cc1`, 10.1%; in that of `Cc1cc(C(=O)NCCCn2ccnc2)sc1-c1ccccc1`, active: 47.3%.
In the case of `COc1ccc(NC(=O)Nc2nnc(-c3ccccc3F)s2)cc1` it was active: 41.3%; in that of `CC1CCN(c2nc3ccc(C(=O)NCCc4ccc(S(N)(=O)=O)cc4)cc3s2)CC1`, 9.32%.
With `O=C(Cn1c(=O)oc2cc(S(=O)(=O)N3CCCCC3)ccc21)NCc1ccc(F)cc1`, the inhibition is -1.65%.
In the case of `O=C(NCc1ccccc1Cl)c1nnc(Cc2ccc(Cl)cc2)o1` it was 7.33%; in that of `Cc1cccc(CSc2ccc(-c3cccs3)nn2)c1`, 0.616%.
`COc1ccc(-c2nc(SCC(=O)NCCc3ccccc3)n[nH]2)cc1`: the inhibition is -0.36%.
In the case of `COc1ccc(-c2noc(CSc3nnc(C)n3-c3ccc(C)c(C)c3)n2)c(OC)c1` it was -2.44%.
The same measure for `Cc1ccc2onc(CC(=O)N3CCN(c4ccccc4)CC3)c2c1`: 12.1%; for `N#C/C(=C\c1cc(Br)c(O)c(Br)c1)c1nc2ccccc2c(=O)[nH]1`: -6.39%.
